# Assay results as given in the supplement of paper PMC3334620.
# The full ranking holds about 33,000 sequences; the median of “E-score (-0.5 to 0.5)” is about -0.016, and the highest 2% start at about 0.31. The list shows a part of the results.
# Target: Cst6 (UniProt P40535)
# Assay: PBM E-score (8-mer binding enrichment) (E-score (-0.5 to 0.5)); higher = stronger / more preferred TF binding; most listed sequences are background and not binding sites
# Conditions: protein concentration: 200 nM; construct: GST-DNA-binding domain
# Summary of the method: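 Universal all-10-mer Agilent arrays, double-stranded by primer extension on fresh or once-stripped slides, were probed with about 100-200 nM GST-tagged yeast transcription factors made by PURExpress. Fluorescent anti-GST detected bound protein, and masliner normalised the scans. E-scores from the Universal PBM Analysis Suite were given to each ungapped eight-base word pooled with its reverse complement.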
row,Sequence,PBM E-score
1,AACAGAGC,-0.0103
2,AACATCTG,-0.118
3,AGCCGAGA,-0.237
4,GGCACCCC,-0.185
5,CTGTCTTA,0.0505
6,AGACACGG,0.0103
7,ATGCCCCA,-0.0538
8,CGACTAGC,-0.168
9,CAAGGAGG,-0.0226
10,AGAATCCG,0.0156
11,AATCTTCT,-0.0116
12,TCGGGAGA,-0.252
13,CCGAATAA,0.17
14,CCACAAAG,0.0903
15,ACCCACAT,-0.0953
16,GTACGCTA,-0.0951
17,ACAGAAGA,0.173
18,ACGGTGTG,-0.104
19,ACATTTTG,0.0673
20,TCCTCAGA,-0.159
21,CGCGCAAG,0.0754
22,CAACAACC,0.058
23,CTAAGTTA,0.156
24,AAGATCAT,0.0787
25,CCTCTGAC,0.00321

row,Sequence,PBM E-score
1,CGAGCCAC,-0.267
2,AGCATAGG,-0.136
3,CGGATATC,-0.00169
4,ATAGTCGA,0.168
5,ACACTAGA,-0.0654
6,CCCATGCA,-0.0177
7,TCTATAAA,0.203
8,CATCTTAC,0.173
9,ACAACTAT,0.116
10,CGGCCCAA,-0.105
11,CGGAACCA,0.0566
12,ATTGATGA,0.296
13,GACTAGCC,-0.281
14,ACCGCGAG,-0.076
15,TTAGTAAA,0.193
16,AGGGGATG,-0.161
17,AAGTAGGC,-0.032
18,AGATGCCG,0.215
19,ACGATGGA,-0.0282
20,GATTTAAA,0.036
21,CGTCTTGC,-0.0491
22,GCTTGTTA,-0.0328
23,GCCCTTTA,-0.207
24,AATAAGCT,0.12
25,ACCACCAT,-0.072

row,Sequence,PBM E-score
1,GCTATAGC,-0.258
2,AAGCTAGG,-0.161
3,CCCCAGTC,-0.298
4,CAGCAATA,0.166
5,AGGGCTTC,-0.0889
6,ATCAAGAT,0.0189
7,GGCCGATA,-0.0736
8,ACCTATCG,-0.0706
9,TTCACGAA,-0.0452
10,ATGGCTTA,-0.0638
11,TACTTTAA,0.155
12,ACAAGGGG,-0.253
13,CAGGCCCC,-0.316
14,CCAATATA,-0.0204
15,CATTCCGG,-0.137
16,GCCATTAC,0.133
17,AGGGCAAA,-0.153
18,GCGCAAAC,-0.0537
19,GCTGCAAC,-0.167
20,ATGTGTTC,0.0414
21,AGCGAGGA,-0.0398
22,CATGAAAG,0.082
23,CATACGGA,0.049
24,CCGGGCGC,-0.213
25,ATGCCCGC,-0.104

row,Sequence,PBM E-score
1,CACATGAG,-0.185
2,CAACTACC,-0.0515
3,CGAGCGCA,-0.0284
4,TAGACGCA,-0.042
5,ACTTAAAC,0.0697
6,GCCAGCAC,-0.0819
7,TCCGGAAA,-0.135
8,CGCACCCG,-0.117
9,TCGACGAA,0.0792
10,GTTAGGAA,0.0338
11,ACTACAGC,-0.192
12,CTGTCCAC,-0.153
13,AAATATAA,0.233
14,CCACGAGG,-0.141
15,ACAATTTG,0.00944
16,GGTGGGGA,-0.0282
17,AAACTGTA,0.111
18,AGTGTAAT,0.0574
19,CACTAAAC,0.136
20,AAACGGCG,0.369
21,CCGGGCGA,-0.295
22,ATGACACG,0.256
23,AAACCGAG,-0.0291
24,AGCGTCGC,-0.105
25,AGGACGGA,-0.231

row,Sequence,PBM E-score
1,GCATAATA,0.227
2,AAGCAGGG,-0.262
3,CCGAAATC,0.0746
4,CGTCTTAC,0.0262
5,CCCTTACG,0.0214
6,TGTGCAAA,-0.0128
7,CATATCTA,0.122
8,AGCGGGTA,-0.00685
9,GGCTCAAC,-0.0841
10,TGTTGGAA,0.0885
11,CATGCCCC,-0.109
12,AACACGCA,-0.0236
13,CGTCTCCC,-0.107
14,AGACTTGA,-0.0852
15,GCATGCGC,0.139
16,AGTACAAT,0.158
17,GAGCGTGC,-0.073
18,AGCAGATC,0.0455
19,ATATTTGC,0.249
20,ATCGCAGG,-0.199
21,CACTTTAG,-0.0355
22,ATTGAGAC,0.127
23,GGATGTAA,0.191
24,GGATTCTA,-0.132
25,CTCGTAGC,-0.154

row,Sequence,PBM E-score
1,ATCTGTTC,-0.0152
2,GCAGAGGC,-0.312
3,AAATAACG,0.263
4,ATCGCCTG,-0.222
5,CGGGCGAG,-0.16
6,AGACGCAA,0.0971
7,GGGCAGAA,0.125
8,CGGATCAA,0.175
9,CCGCCGCA,0.0944
10,CTCTCATC,-0.0922
11,CCCGGATA,-0.319
12,CGTCCACA,-0.0335
13,ATGATTTA,0.277
14,ACACCGAC,0.0715
15,GGCAAATA,0.259
16,CATCGGGA,0.0725
17,CAGGAGGG,-0.256
18,GTCCCATA,-0.14
19,CGGACACC,-0.251
20,AGCGGAGC,-0.217
21,GTCCGACA,-0.00974
22,GGGCGTTA,0.0804
23,TAGTCTGA,0.0293
24,GACGGTGA,0.0968
25,CGTAGAGC,0.0266

row,Sequence,PBM E-score
1,CCATTCGA,0.126
2,GCAACCAA,0.0886
3,CTTCCCAC,0.0313
4,GGAACACC,-0.343
5,AGAACTAA,0.173
6,ATCGACGG,0.0039
7,GACCCTCC,-0.246
8,TCAACGCA,0.105
9,GGCTCTAC,-0.236
10,TAAGACAA,0.186
11,CATAATTA,0.304
12,CTCCGAGC,-0.0988
13,AAGATGTA,0.169
14,ACGGGTTC,-0.13
15,ACCCTAAT,-0.116
16,GCGCAATA,-0.079
17,ATCAGGGG,-0.362
18,GGCACATA,0.14
19,AGAAGGGC,-0.176
20,GTGTCCCA,-0.0405
21,GGAGGCAA,-0.3
22,CAGCGAAC,-0.0605
